The other results are listed elsewhere or left out. The full chains were built here from the parent and the listed change. Values near 0.05 are background.
B1: TEV protease; numbered along this chain (parent)
chain: MGESLFKGPRDYNPISSSICHLTNESDGHTTSLYGIGFGPFIITNKHLFRRNNGTLVVQSLHGVFKVKDTTTLQQHLVDGRDMIIIRMPKDFPPFPQKLKFREPQREERICLVTTNFQTKSMSSMVSDTSCTFPSGDGIFWKHWIQTKDGQCGSPLVSTRDGFIVGIHSASNFTNTNNYFTSVPKNFMELLTNQEAQQWVSGWRLNADSVLWGGHKVFMVKPEEPFQPVKEATQL

Variants of: B1
Assay: raw area under fraction-flipped curve 0-4 h after induction (AUC4h, not background-subtracted), DNA-recorder readout of cleavage of the substrate (dimensionless); higher = more cleavage of the substrate by the protease variant
Conditions: temperature: 34 °C; time window: 0-4 h after rhamnose induction
Procedure: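 In vivo DNA recorder in E. coli TOP10(DE3) ΔrhaA at 34 °C. Each TEVp single-site mutant (parent TEVp 0) is paired with a single-site variant of the 7-mer TEVs (canonical ENLYFQ|S). The substrate sits between flexible linkers in a Bxb1-sfGFP-TEVs-SsrA fusion, so cleavage stabilises Bxb1 and speeds flipping of a recombination array, read by NGS. The value is the raw area under the fraction-flipped curve over 0-4 h after rhamnose induction (AUC4h), with ≥20 reads per time point. It is not background-subtracted; inactive controls average about 0.047.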
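Note: Bxb1 expression induced with 0.2% (w/v) L-rhamnose at OD600 near 0.5, cultures sampled hourly, flipped fraction per protease–substrate barcode pair counted by paired-end Illumina sequencing.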

| Variant | area with substrate ENLYFAS | area with substrate ENLYFCS | area with substrate ENLYFDS | area with substrate ENLYFFS | area with substrate ENLYFGS | area with substrate ENLYFHS | area with substrate ENLYFIS | area with substrate ENLYFKS | area with substrate ENLYFLS | area with substrate ENLYFMS | area with substrate ENLYFNS | area with substrate ENLYFPS | area with substrate ENLYFRS | area with substrate ENLYFSS | area with substrate ENLYFTS | area with substrate ENLYFYS | area with substrate ENLYFES | area with substrate ENLYFVS | area with substrate ENLYFWS |
| --- | --- | --- | --- | --- | --- | --- | --- | --- | --- | --- | --- | --- | --- | --- | --- | --- | --- | --- | --- |
| T23E | 0.0561 | 0.0723 | 0.0569 | 0.0927 | 0.0631 | 0.0485 | 0.0461 | 0.0577 | 0.0392 | 0.0641 | 0.0755 | 0.062 | 0.061 | 0.0564 | 0.0691 | 0.0632 |  |  |  |
| T23K | 0.0646 | 0.0778 |  |  | 0.0856 | 0.0604 | 0.0586 | 0.0547 |  | 0.0612 | 0.0574 | 0.056 | 0.0527 |  |  | 0.0716 | 0.062 | 0.0537 |  |
| S26E | 0.0657 | 0.053 | 0.0565 | 0.0679 | 0.0891 | 0.0647 | 0.0532 | 0.0667 |  | 0.0651 | 0.0532 |  | 0.071 |  | 0.0583 | 0.0539 | 0.0668 | 0.0626 | 0.055 |
| S26R | 0.0609 | 0.0513 |  | 0.0625 |  |  | 0.0587 | 0.0628 | 0.0917 | 0.0543 | 0.0615 | 0.0684 | 0.0632 |  | 0.0561 |  |  | 0.0863 | 0.044 |
| D27G | 0.0569 |  | 0.0548 | 0.0706 | 0.0297 | 0.0194 | 0.0919 | 0.117 |  | 0.0702 | 0.0623 | 0.0468 |  |  |  |  | 0.0616 |  | 0.0444 |
| D27S | 0.0582 |  |  | 0.0541 |  | 0.0526 | 0.0607 |  | 0.0614 | 0.068 | 0.0414 | 0.0617 | 0.0553 |  | 0.0643 |  | 0.0668 | 0.0567 | 0.0556 |
| G28Q | 0.0606 | 0.0617 |  | 0.067 |  | 0.0609 | 0.0534 |  |  | 0.0609 |  | 0.0557 |  | 0.0592 | 0.0639 |  | 0.0499 |  | 0.0635 |
| H29I | 0.0436 | 0.063 |  |  | 0.065 | 0.065 | 0.0419 | 0.0585 |  | 0.0458 | 0.0524 |  |  | 0.0627 | 0.0601 | 0.0526 | 0.0569 | 0.0491 | 0.0328 |
| H29M | 0.0557 | 0.0681 |  | 0.0705 |  | 0.0335 | 0.0471 | 0.0663 |  | 0.0824 | 0.0567 | 0.0676 | 0.0441 |  | 0.0606 | 0.0707 | 0.0618 | 0.0375 | 0.0663 |
| T31V | 0.0529 |  |  | 0.0448 |  | 0.0561 | 0.0595 | 0.0711 |  | 0.0669 | 0.0622 | 0.0643 | 0.0669 |  | 0.0502 | 0.0501 | 0.0636 | 0.0617 | 0.0555 |
| L33R | 0.0593 | 0.0498 |  | 0.0662 |  | 0.0721 | 0.0572 | 0.062 |  | 0.0569 | 0.0605 | 0.0619 |  | 0.0667 | 0.0632 |  |  | 0.0321 | 0.0534 |
| L33Y | 0.0591 | 0.0514 |  |  | 0.058 | 0.075 | 0.0498 | 0.0515 |  | 0.056 | 0.064 | 0.0666 | 0.0551 | 0.0605 | 0.0427 |  | 0.0698 |  | 0.0639 |
| G37A | 0.0528 | 0.0596 |  | 0.0677 |  | 0.0628 | 0.0531 | 0.0589 |  | 0.0607 | 0.0646 | 0.0474 | 0.069 | 0.0577 | 0.0545 | 0.0354 | 0.0556 | 0.0573 | 0.0547 |
| G37F | 0.0541 | 0.0502 | 0.0681 | 0.0539 |  |  | 0.0503 | 0.0495 | 0.0498 | 0.0574 | 0.0403 | 0.0512 | 0.0429 | 0.053 | 0.0386 | 0.0436 | 0.0232 | 0.0631 | 0.0549 |
| G37S | 0.0604 | 0.0522 | 0.0688 |  |  | 0.0567 | 0.054 |  |  |  | 0.0538 | 0.0525 |  | 0.0519 |  |  | 0.0459 |  | 0.0577 |
| F38K | 0.0498 | 0.05 | 0.0348 | 0.0523 |  | 0.0457 | 0.0474 | 0.0636 |  | 0.0672 | 0.0511 | 0.0576 |  |  | 0.0283 |  | 0.053 | 0.0501 | 0.0486 |
| G39F | 0.0442 | 0.0385 | 0.0415 | 0.0477 |  | 0.0456 | 0.0415 | 0.0406 |  | 0.0408 | 0.0392 | 0.0397 | 0.0382 | 0.0456 | 0.0387 | 0.0507 | 0.0412 | 0.0318 | 0.043 |
| G39L | 0.0268 |  | 0.04 |  | 0.0447 | 0.0431 | 0.0438 |  | 0.0165 | 0.0326 | 0.0349 | 0.0389 | 0.0213 |  | 0.0458 | 0.0386 | 0.0291 | 0.0525 |  |
| G39Y | 0.0476 | 0.0345 |  | 0.05 |  | 0.0448 | 0.047 | 0.0418 |  | 0.0329 | 0.0501 | 0.0728 |  | 0.0519 |  | 0.0393 | 0.0367 | 0.043 | 0.0449 |
| P40Q | 0.0558 | 0.0571 |  | 0.0782 |  | 0.0659 | 0.068 | 0.0638 |  | 0.0624 | 0.0655 | 0.0682 |  |  | 0.0554 | 0.0646 | 0.0688 | 0.0406 |  |
| F41A | 0.0451 | 0.0519 |  | 0.0623 |  | 0.0491 | 0.0533 | 0.0427 | 0.0376 | 0.0584 | 0.0513 | 0.0644 | 0.0314 |  | 0.0618 | 0.0518 | 0.0583 | 0.0663 | 0.0456 |
| F41G | 0.0407 | 0.0527 |  | 0.0675 | 0.0396 | 0.0407 | 0.0452 | 0.0612 | 0.0569 | 0.0648 | 0.0451 | 0.0467 | 0.0467 | 0.0469 | 0.046 | 0.0364 | 0.0562 | 0.0521 | 0.0531 |
| F41P | 0.0443 | 0.0513 | 0.0708 | 0.0692 |  | 0.0415 | 0.0447 | 0.059 | 0.0551 | 0.0432 | 0.0491 | 0.0499 | 0.0576 | 0.0526 |  | 0.0487 | 0.058 | 0.0545 | 0.0506 |
| I42V | 0.0746 |  | 0.0599 |  |  |  | 0.0565 |  |  |  | 0.0628 | 0.0559 | 0.055 |  | 0.0696 |  | 0.0662 |  |  |
| I43D | 0.0438 | 0.0339 | 0.0464 | 0.0353 |  | 0.0407 | 0.0355 | 0.0401 |  | 0.0482 | 0.0394 | 0.0396 |  | 0.0637 | 0.0328 | 0.0352 | 0.0437 | 0.0764 | 0.0458 |
